Here are results for 42 sequences from PMC7819943, “Rice protein-binding microarrays: a tool to detect cis-acting elements near promoter regions in rice”.

This is one part of the list.

For this experiment, the target named is T1, OsWOX13 (Oryza sativa, UniProt Q5QMM3 1-267).
T1 sequence: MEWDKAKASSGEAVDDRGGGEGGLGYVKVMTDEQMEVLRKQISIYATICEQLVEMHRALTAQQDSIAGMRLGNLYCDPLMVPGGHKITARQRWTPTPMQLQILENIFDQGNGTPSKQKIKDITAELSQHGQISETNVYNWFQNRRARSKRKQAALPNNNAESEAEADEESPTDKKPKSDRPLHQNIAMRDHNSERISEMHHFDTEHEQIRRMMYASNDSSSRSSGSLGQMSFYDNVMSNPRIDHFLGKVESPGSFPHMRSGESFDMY
As to the kind of experiment: protein-binding microarray (RPBM); PBS, 2% BSA, 51.3 ng/ul salmon testes DNA, 50 uM zinc acetate, 200 nM TF, 25 C, 1 h; high values mean tight binding. As to conditions: protein: recombinant; tags: N-terminal polyhistidine and DsRed monomer fusion (pET32a); label: CyDye5-dUTP incorporated in the synthesized complementary strand; 3' TTTTT single-stranded linker to array surface; dsDNA, one strand shown. In outline: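 Transcription factors were made in E. coli BL21-CodonPlus as N-terminal fusions to a polyhistidine tag and DsRed, then purified on Ni–NTA. After primer extension with Cy5-dUTP and blocking with 2% BSA, a custom Agilent array was exposed for 1 h at 25 °C to 200 nM protein in PBS, 2% BSA, salmon testes DNA and 50 µM zinc acetate. Washed arrays were scanned on an Axon 4000B, and the binding signal is per-feature fluorescence intensity in arbitrary units.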
For the sequence “CAATGGAGTTAATTGTTGCAAATCCTACATTGGTGAATATCGGAGTCACCTAGTGCAG”, the binding signal was 8970 fluorescence intensity (a.u.).
Consider “AAAATTCTGAACTAACTAATTGGTAATACAAATCCATTCTCGGAGTCACCTAGTGCAG”, for which the binding signal was 10700 fluorescence intensity (a.u.).
As for “CTTATGTTAATTATTGTTATTATCTAAAACTAACAGATTACGGAGTCACCTAGTGCAG”, the figure is 24200 fluorescence intensity (a.u.); as for “ATACCCTTGTTAATTAGGTACTCTAATTTTCTTTGCGTGTCGGAGTCACCTAGTGCAG”, 13400 fluorescence intensity (a.u.).
As for “ACTTGTAGTTGACCCGCAAATTAGTGCTGCTTAATTTATACGGAGTCACCTAGTGCAG”, the figure is 3640 fluorescence intensity (a.u.).
Then “GGATTCTAATTGTCCTTGTAAATTGTACACAGGACAATACCGGAGTCACCTAGTGCAG”, with 5320 fluorescence intensity (a.u.); and “GATCTAATGATGCGTTCAATCTAGTTTACATCTGCAATGTCGGAGTCACCTAGTGCAG”, with 8640 fluorescence intensity (a.u.).
Take “ACAAAGTAATTGATTTCTTGTGTGAGGCCTTGTTTAGATCCGGAGTCACCTAGTGCAG”: the binding signal was 53400 fluorescence intensity (a.u.).
As for “GTGATTGAGTTTGAATGTAAGCAACTTCTAACGATAGTGCCGGAGTCACCTAGTGCAG”, the figure is 42200 fluorescence intensity (a.u.); as for “ATTCAATAAATCTATCTGTATGTCTATCTATCTTCTACTCCGGAGTCACCTAGTGCAG”, 4010 fluorescence intensity (a.u.).
On to “TATGTAGATATAGATTGGCTGCTCAAATCTTTTCGCGATTCGGAGTCACCTAGTGCAG”, for which the binding signal is 11100 fluorescence intensity (a.u.).
As for “TTTAAACTGGCTGTGACTACATGAAATCATATGAAATCAGCGGAGTCACCTAGTGCAG”, the figure is 16600 fluorescence intensity (a.u.); as for “AGGGAATTTTATGATTTGCATTGGTGCTGAGGTCAAACCCCGGAGTCACCTAGTGCAG”, 7180 fluorescence intensity (a.u.); as for “TATAATTTTAAGCTACACAGACAAATCTAAATACGGTAAACGGAGTCACCTAGTGCAG”, 6900 fluorescence intensity (a.u.).
Then “CCAAAATTTACCCAATATAACGGCCCATTTACGACATTCCCGGAGTCACCTAGTGCAG”, with 4610 fluorescence intensity (a.u.).
With “ATTTGGTGTTTGTGATTGAGTTCGTTTATTTCGAGAAATGCGGAGTCACCTAGTGCAG”, the binding signal was 16900 fluorescence intensity (a.u.).
As for “GCTGTTAATTAAGCAGCAGAAGAAGTAGCAGCTTAGCTGCCGGAGTCACCTAGTGCAG”, the figure is 6420 fluorescence intensity (a.u.); as for “AGCCAAATTACCATGTCTTTTCAAGCATGTCTATGGGAACCGGAGTCACCTAGTGCAG”, 5530 fluorescence intensity (a.u.).
As for “TTTAAATTTAACTAAGTTTATAAATAAATATAATAATATTCGGAGTCACCTAGTGCAG”, the figure is 3320 fluorescence intensity (a.u.); as for “AATCTAATTTAATTAGGATATAGATCTAGCAATGCTGTTTCGGAGTCACCTAGTGCAG”, 36400 fluorescence intensity (a.u.).
As to “TGATTGTTTCATTAATTAGCCTGTTTTGTCTGTAAATACTCGGAGTCACCTAGTGCAG”, the binding signal was 6690 fluorescence intensity (a.u.).
Then “CTTTGAAATTGCGTAATATCAAAATTGCATCTATTTTATCCGGAGTCACCTAGTGCAG”, with 4430 fluorescence intensity (a.u.); and “AGCTATCCAGAAATTAATTACTAGTCACAATTGCCACTTCCGGAGTCACCTAGTGCAG”, with 10200 fluorescence intensity (a.u.).
Then “ATTATACATTTGATCAATTATTATACACTGGTTCTCAAAACGGAGTCACCTAGTGCAG”, with 13500 fluorescence intensity (a.u.); and “ACTTAAATTGAAATTGGGTTTGTTGGATCTTCAGCATAGCCGGAGTCACCTAGTGCAG”, with 30000 fluorescence intensity (a.u.); and “ACTTCTTCTACGTGATTTCCTGATTCGCCTCATCCGCTTCCGGAGTCACCTAGTGCAG”, with 3770 fluorescence intensity (a.u.).
As for “GAGGGAGTACTAATTAATTAAACGCGGTTGCTTTCTCGCCCGGAGTCACCTAGTGCAG”, the figure is 15400 fluorescence intensity (a.u.); as for “TAATTTAAATTTATTTAAACATGACTACTCGATTGCCATGCGGAGTCACCTAGTGCAG”, 30400 fluorescence intensity (a.u.); as for “CTTCCAATCGTCAATGTCTGATTTTGTCGTTGGCGTGTAACGGAGTCACCTAGTGCAG”, 9800 fluorescence intensity (a.u.).
Regarding “CTTAACTAATCATATGCTGCTAATGACTTATCCTGCGGTGCGGAGTCACCTAGTGCAG”, the binding signal is 33700 fluorescence intensity (a.u.).
As to “ACAGTTACATGATTAAATGGTCTTCTTGAATTTTGCGGTGCGGAGTCACCTAGTGCAG”, the binding signal was 13700 fluorescence intensity (a.u.).
Take “ATTGGTAGTCATAATTAATTAGACCACGATGCCCTCTAAACGGAGTCACCTAGTGCAG”: the binding signal was 14000 fluorescence intensity (a.u.).
Then “CCGATTTCTATATAATTTCGATTAACGCCACGCCATGCCACGGAGTCACCTAGTGCAG”, with 6100 fluorescence intensity (a.u.); and “ATAATCAAAGAATTAATCAGGATAGGATGGCACGAATCTTCGGAGTCACCTAGTGCAG”, with 4980 fluorescence intensity (a.u.); and “CTTCACCCACCAAGATTTAAATTATGGTGTAACCACAAATCGGAGTCACCTAGTGCAG”, with 3500 fluorescence intensity (a.u.).
Then “AATAATACGTGATTAATTAAATTTTAATTATTATAAACTTCGGAGTCACCTAGTGCAG”, with 25600 fluorescence intensity (a.u.); and “ACGTAATGACATGTAAAGCGTTATGTAGATGCCACGTGGACGGAGTCACCTAGTGCAG”, with 4580 fluorescence intensity (a.u.); and “TACTTCAATGATTTAATTAAGGATAGCTTGCAGCTTAACTCGGAGTCACCTAGTGCAG”, with 14800 fluorescence intensity (a.u.).
In the case of “AATATATGATTTTGTTTGGGTGCTAGCCGCGCAAATGCGCCGGAGTCACCTAGTGCAG”, the binding signal is 3950 fluorescence intensity (a.u.).
As for “GGATGATAGTTGATGGATGAATATGTGATGGAGACATGGACGGAGTCACCTAGTGCAG”, the figure is 24900 fluorescence intensity (a.u.); as for “TGCTAGATTTAATTAAACTAATTTGGTGTTTAAAATGTTACGGAGTCACCTAGTGCAG”, 36100 fluorescence intensity (a.u.).
Then “TGAAAATTGATGATGCGGATGCGAGGTGCACGAGGAGTGACGGAGTCACCTAGTGCAG”, with 19400 fluorescence intensity (a.u.).
